Laboratory results reported in PubChem BioAssay AID686978 (National Center for Advancing Translational Sciences (NCATS), 2013).
The whole screen tested about 420,000 compounds, of which about 64,000 (15%) were called active. Inconclusive means that the source gave no clear call. Such entries were picked first, then a sample of the others. Calls follow the shape of the dose curve; as a rule, active = well fitted inhibition curve with a large enough effect; inconclusive = small, poorly fitted or top-dose-only effect; inactive = flat fitted curve, though single readings scatter. Potencies of inconclusive entries are left out as doubtful fits.
% is scaled to controls: 0 for no effect and ±100 for the full control effect; potency is read from the fitted curve at half-maximal effect; tags tell the direction and shape of the fitted curve.

Assay: qHTS for Inhibitors of human tyrosyl-DNA phosphodiesterase 1 (TDP1): qHTS in cells in absence of CPT; also: nearly all actives have a fitted effect of over 55% in size
Conditions: DT40 Tdp1-/- hTDP1 cells, no CPT, ATP luminescence, 48 h; activity change, negative = growth inhibition: at 46.2 µM (top of the series) unless noted
Method in brief: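 Seeded 400 DT40-hTDP1 cells/well (vehicle DMSO, no 20 nM CPT); pinned compounds; ≥48 hr at 37 °C; CellTiter-Glo luminescence as viability measure.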
In the case of `CCn1c(SCC(=O)Nc2sc3c(c2C#N)CCC(C(C)(C)C)C3)nnc1-c1ccco1` (centres undefined), the Potency is reported as inconclusive [inhibitor, single point]. In the case of `COc1ccccc1/C=C/c1nc(C#N)c(N2CCCCC2)o1`, the Potency is reported as active: 16.4 µM. For `Cc1nc2nncn2c(N2CCN(c3ccccc3)CC2)c1C`, the Potency was inconclusive [inhibitor, partial curve]. In the case of `CC1(C)CC(=O)c2cnc(N3CCc4ccccc4C3)nc2C1`, the Potency is reported as inconclusive [inhibitor, partial curve]. In the case of `O=S(=O)(NC1CC1)c1ccc(S(=O)(=O)N2CCCC(c3nc(-c4cccnc4)no3)C2)cc1` (centres undefined), the Potency is reported as inconclusive [inhibitor, single point]. For `O=C1C(=O)N(CCN2CCCCC2)c2ccccc21`, the “activity change, negative = growth inhibition” value was inactive: -9.07%. In the case of `Cc1cc(CNC(=O)COc2ccc(F)cc2)c2ccccc2n1`, the Potency is reported as active: 20.6 µM. For `CCn1c(NC(=O)c2cccc(Cn3cc(Cl)cn3)c2)nc2ccccc21`, the Potency was active: 14.6 µM. In the case of `COc1cccc(C(=O)Nc2cccc3cccnc23)c1OC`, the Potency is reported as inconclusive [inhibitor, single point]. In the case of `CCCCN(C(=O)/C=C/c1ccco1)c1c(N)n(CC(C)C)c(=O)[nH]c1=O`, the “activity change, negative = growth inhibition” value is reported as inactive: -3.29%. In the case of `O=C(COC(=O)Cc1ccc(S(=O)(=O)N2CCOCC2)s1)NCc1ccc(Cl)cc1`, the “activity change, negative = growth inhibition” value is reported as inactive: -12.2%. For `Cc1ccc(OCCOc2ccc(Cl)cc2Cl)c([N+](=O)[O-])n1`, the Potency was active: 16.4 µM. For `Cc1ccc(NC(=O)c2ccc(Cl)c(S(=O)(=O)N3CCCCCC3)c2)nc1`, the Potency was inconclusive [inhibitor, partial curve]. With `[O-]/C(=C(\C(=S)NCc1ccc2c(c1)OCO2)[n+]1ccccc1)c1ccc(Cl)s1` the Potency was inconclusive [inhibitor, single point]. In the case of `Cc1ccc(NC(=O)CSc2ncc3c(n2)-c2ccccc2N(Cc2cccc(F)c2)S3(=O)=O)cc1F`, the “activity change, negative = growth inhibition” value is reported as inactive: -24.7%. For `CCN(CC)C(=O)C1CCN(S(=O)(=O)c2ccc3c(c2)CCCN3C(C)=O)CC1`, the Potency was inconclusive [inhibitor, single point]. In the case of `CCN(CC)C(=O)n1cnc(-c2ccccc2)c1-c1ccccc1`, the Potency is reported as inconclusive [inhibitor, single point]. For `O=C1c2ccccc2C(=O)C1(c1ccccc1)N1CCN(c2cccc(Cl)c2)CC1`, the Potency was inconclusive [inhibitor, single point]. For `Cc1ccc(N2CC(NC(=O)/C=C\c3ccc4c(c3)OCO4)CC2=O)cc1C` (centres undefined), the Potency was inconclusive [inhibitor, single point]. For `CCOc1ccc(C(c2c(NC(=O)c3ccco3)sc(C)c2C)N2CCOCC2)cc1` (centres undefined), the Potency was inconclusive [inhibitor, single point]. For `CCOc1ccc(NS(=O)(=O)c2ccc(C(=O)N(C)CC(=O)Nc3ccc(OC)cc3)cc2)cc1`, the Potency was inconclusive [inhibitor, single point]. With `COc1ccccc1OCCNC(=O)Nc1ccc(Br)cc1` the Potency was inconclusive [inhibitor, single point]. For `COc1ccc(-n2c(/C=C/c3ccccc3F)nc3cc(OC)c(OC)cc3c2=O)cc1Cl`, the Potency was active: 18.4 µM. In the case of `COCCNC(=O)c1cnn(-c2ccc(C)cc2C)c1C1CCN(C(=O)OC(C)(C)C)CC1`, the Potency is reported as inconclusive [inhibitor, single point]. For `CCOC(=O)c1ccc(NC(=O)c2c(NCc3ccccc3)[nH]c(=O)[nH]c2=O)cc1`, the “activity change, negative = growth inhibition” value was inactive: 8.57%. For `COc1ccccc1/C=N/Nc1nc(C)c(C(C)=O)s1`, the “activity change, negative = growth inhibition” value was inactive: -11.1%. For `NC[C@H]1O[C@H](O[C@H]2[C@H](O)[C@@H](O[C@H]3O[C@H](CO)[C@@H](O)[C@H](N)[C@H]3O)[C@H](N)C[C@@H]2N)[C@H](O)[C@@H](O)[C@@H]1O`, the Potency was inconclusive [inhibitor, single point]. In the case of `N#Cc1ccc(NC(=O)COc2ccccc2C(=O)Nc2ccccc2)cc1`, the Potency is reported as inconclusive [inhibitor, single point]. With `CCOC(=O)c1ccc(NC(=O)c2cccc(S(=O)(=O)N3c4ccccc4CC3C)c2)s1` (centres undefined) the Potency was active: 6.51 µM. With `Cc1cc2ncn(CCOc3ccccc3)c2cc1C` the Potency was inconclusive [inhibitor, single point]. For `C=C(C)C(=O)Nc1cccc(C2=NOC3(C2)C[C@@H](C(N)=O)N(C(=O)c2ccc(OC)cc2)C3)c1` (some centres undefined), the “activity change, negative = growth inhibition” value was inactive: -7.04%. For `C=CCn1c(-c2ccc3ncccc3c2)n[nH]c1=S`, the Potency was inconclusive [inhibitor, full curve, poor fit]. For `O=C(Nc1c(C(=O)N2CCOCC2)oc2ccccc12)c1cccc([N+](=O)[O-])c1`, the “activity change, negative = growth inhibition” value was inactive: -14.1%. For `Cc1[nH]c(=O)[nH]c(=O)c1S(=O)(=O)Nc1ccc(F)c([N+](=O)[O-])c1`, the “activity change, negative = growth inhibition” value was inactive: 2.48%. For `Cc1ccc(C)c(OCC(=O)Nc2ccncc2)c1`, the Potency was inconclusive [inhibitor, partial curve, poor fit]. In the case of `CC1CN(C(=O)Nc2ccc(C(=O)NCCc3ccccc3)cc2)c2ccccc2S1` (centres undefined), the Potency is reported as inconclusive [inhibitor, single point]. With `Cc1cc2c3c(c1)C(C)CC(C)(C)N3C(=O)C2=O` (centres undefined) the Potency was inconclusive [inhibitor, single point]. For `CSc1nccc(-c2cc(Cl)sc2Cl)n1`, the activity change, negative = growth inhibition was inconclusive: -34.5% [inhibitor]. With `O=C(c1ccco1)N1CCN(C(=O)N2CCOCC2)CC1` the “activity change, negative = growth inhibition” value was inactive: -12.2%. With `CCc1ccccc1N(CC)C(=O)c1cn(C)c(=O)c2cc(OC)c(OC)cc12` the Potency was inconclusive [inhibitor, single point]. For `CCOc1ccc(C(=O)Nc2cc(-c3nc4ccccc4o3)ccc2C)cc1Cl`, the “activity change, negative = growth inhibition” value was inactive: -6.34%. With `CCCCSc1nc2c(c(=O)n1CC)SC(C)C2` (centres undefined) the Potency was inconclusive [inhibitor, single point]. For `Cc1cccc(C(=O)NCC2Cc3cc(F)cc(-c4cnccn4)c3O2)n1` (centres undefined), the Potency was inconclusive [inhibitor, single point]. In the case of `O=C(Nc1ccc(Cl)cn1)c1cccc(OCc2ccccc2)c1`, the Potency is reported as inconclusive [inhibitor, single point].
